# In the supplement of paper PMC3334620:
# Whole data set: some 33,000 sequences, median “E-score (-0.5 to 0.5)” near -0.056, cut for the highest 2% near 0.38. This is one part of the list.
# Molecular target: Stb4 (UniProt P50104)
# Test: PBM E-score (8-mer binding enrichment) (E-score (-0.5 to 0.5)); higher = stronger / more preferred TF binding; most listed sequences are background and not binding sites
# Conditions: protein concentration: 200 nM; construct: GST-DNA-binding domain
# Outline: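 Universal all-10-mer Agilent arrays, double-stranded by primer extension on fresh or once-stripped slides, were probed with about 100-200 nM GST-tagged yeast transcription factors made by PURExpress. Fluorescent anti-GST detected bound protein, and masliner normalised the scans. E-scores from the Universal PBM Analysis Suite were given to each ungapped eight-base word pooled with its reverse complement.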
row,Sequence,PBM E-score
1,AGCCTTCA,-0.0983
2,AATTGCCA,-0.103
3,CCATAGCG,-0.222
4,ATTGTCCG,0.262
5,CGCATCGA,-0.0473
6,AACACCTC,-0.185
7,AGCCAGCT,-0.222
8,TATCACCA,-0.158
9,GGTACAAA,0.0208
10,CTCGATGA,-0.0395
11,CTAGAGGC,-0.321
12,CCGTCTCG,0.264
13,GTGCCGGA,0.37
14,GCTTAACC,-0.0848
15,AACCACTA,-0.229
16,GAGTAAGA,-0.0951
17,GGACGGGA,0.181
18,AGTGACGC,-0.0102
19,AATATGAT,-0.0156
20,GTTCCTGA,-0.0759
21,CGCTTTTA,0.0375
22,ATCACGGC,0.131

row,Sequence,PBM E-score
1,AGTGCAGC,0.0482
2,ACGATCGA,-0.19
3,AACTTGCT,-0.0328
4,TATTCCGA,0.462
5,CGCATAAC,-0.113
6,ATTACGTC,-0.0695
7,TACTGCAA,-0.0607
8,ACCTGGAG,-0.148
9,GCTCGACA,-0.311
10,CAGGCCTC,-0.141
11,CGAAACAC,0.0594
12,GACTTCCC,0.0994
13,AACAAGGC,-0.149
14,CACGATTC,0.0694
15,GGCATAAC,-0.107
16,AACATGGG,-0.0372
17,CTGTCGGA,0.353
18,ACACGTGG,-0.239
19,AGATGCTA,-0.111
20,AAATGCAT,-0.0657
21,ATGACAGG,-0.22
22,ACAAGTCA,-0.247

row,Sequence,PBM E-score
1,ACCCTTGG,-0.208
2,TCCAGCCA,-0.321
3,AGCAAGGC,-0.0869
4,CCAATCGC,-0.153
5,TACAGTGA,-0.308
6,TGCAGGCA,-0.208
7,CGCTCAAC,-0.11
8,AGCAGGAT,-0.198
9,ACCCCCGC,0.0869
10,ACATTCGA,0.0103
11,ATAATAAT,-0.0296
12,GTTGGGAA,0.0755
13,GAACAGAC,0.134
14,GGGATATA,0.168
15,AGCCGGGC,0.166
16,ATGTTTAC,-0.113
17,CACGTCAG,-0.212
18,ATAACTAA,-0.0748
19,CGTAGGAG,0.0593
20,ACTGGTCC,0.136
21,GGAGGTGA,-0.0309
22,TCCATCAA,-0.0134

row,Sequence,PBM E-score
1,AAACCTTG,-0.347
2,GGCTGCAC,0.107
3,GGCATTAA,0.0712
4,GATGCTTA,-0.00303
5,AGTCAACC,-0.0246
6,GCGCAGAA,-0.0596
7,AAGTATCT,0.0592
8,ATTCGATC,0.0474
9,GACAGGCA,-0.121
10,ACTGAAGT,-0.122
11,GTGGGTAA,0.0335
12,CGGTGTAA,0.126
13,AAAGTATT,-0.146
14,CACGCGCC,0.0048
15,GGTATAGA,0.0466
16,GAGCAGGC,-0.135
17,ATCATAAG,-0.0519
18,TAGGCCAA,-0.0277
19,AGCCCCGA,0.237
20,ACAGGAGT,-0.174
